Source: PubChem BioAssay AID488969 (Vanderbilt High Throughput Screening Facility, 2010)
Over roughly 110,000 compounds, “z-score” has its median near -0.1; the highest 2% begin near 2. The list shows a part of the results. Active and inactive are the calls of the source.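 How the source made its calls: active means z-score in the third read window above 3 or below -3; inactive means the rest.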

The compounds below were run against Metabotropic glutamate receptor 8 (Rattus norvegicus) (UniProt P70579) (assay: mGluR8 Gi/Go-coupled signaling modulation – cell-based, rat, thallium flux, HTS, primary screen (AID 488969)). Details: HEK293 rat mGluR8, GIRK (G protein-gated inwardly rectifying potassium channel) thallium flux, FluoZin2; at 10 µM; stronger effect = higher value; submaximal glutamate (EC20) added with thallium.
Sequence of UniProt P70579 (P70579 whole entry, looked up): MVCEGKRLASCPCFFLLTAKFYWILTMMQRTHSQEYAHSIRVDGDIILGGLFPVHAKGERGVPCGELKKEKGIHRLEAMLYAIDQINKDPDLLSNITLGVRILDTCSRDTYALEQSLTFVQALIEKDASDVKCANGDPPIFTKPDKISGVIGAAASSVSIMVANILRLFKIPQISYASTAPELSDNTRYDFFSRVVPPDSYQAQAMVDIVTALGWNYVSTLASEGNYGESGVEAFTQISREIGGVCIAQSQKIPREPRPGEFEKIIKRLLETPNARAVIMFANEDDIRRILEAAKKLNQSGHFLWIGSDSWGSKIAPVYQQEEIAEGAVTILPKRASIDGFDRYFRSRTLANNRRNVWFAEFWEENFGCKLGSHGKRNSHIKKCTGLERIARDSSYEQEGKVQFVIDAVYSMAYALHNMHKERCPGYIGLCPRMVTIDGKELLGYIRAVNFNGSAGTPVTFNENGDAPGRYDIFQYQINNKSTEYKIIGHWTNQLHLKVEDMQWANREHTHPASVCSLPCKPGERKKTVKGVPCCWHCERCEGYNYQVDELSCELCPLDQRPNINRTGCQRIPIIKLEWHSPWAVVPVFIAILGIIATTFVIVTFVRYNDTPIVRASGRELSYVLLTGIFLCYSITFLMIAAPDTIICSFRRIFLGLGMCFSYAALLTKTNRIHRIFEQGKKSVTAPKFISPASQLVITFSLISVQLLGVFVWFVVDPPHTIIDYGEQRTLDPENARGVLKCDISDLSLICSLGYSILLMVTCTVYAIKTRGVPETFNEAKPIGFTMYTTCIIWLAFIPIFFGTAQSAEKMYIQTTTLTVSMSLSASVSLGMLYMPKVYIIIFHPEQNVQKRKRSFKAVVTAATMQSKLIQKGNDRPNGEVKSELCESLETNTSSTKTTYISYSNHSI
Cc1cc(OCC(=O)NCc2nc(-c3ccccc3)no2)c(C)cc1Br gave a z-score of 1.12.
Cc1n[nH]c(=S)n1/N=C/c1ccccc1OCc1ccc(Cl)cc1 showed a z-score of 0.0338.
Nc1nc(CSCCO)nc(Nc2ccccc2)n1 showed a z-score of -0.257.
With Cc1nc(C(F)(F)F)c(C(=O)NC(=O)Nc2ccc(OC(F)(F)F)cc2)s1 the z-score was 0.438.
COCCCNC(=O)C1CCCCN1S(=O)(=O)c1ccc(F)cc1 (centres undefined) gave a z-score of 0.633.
Work on COc1ccc(-c2cc(C#N)nc(Oc3ccc(Cl)cc3)n2)cc1 yielded a z-score of -0.367.
CCOc1ccccc1Nc1nnc(C)c(=O)[nH]1 was tested, and the z-score was -0.155.
In the case of CCCN1C(=O)SC(CC(=O)Nc2ccccc2)C1=O (centres undefined), the z-score is reported as -0.353.
COc1ccc(C(=O)NCC(=O)OCc2ccc(F)cc2Cl)cc1OC was tested, and the z-score was -0.361.
In the case of CC(C)n1nnnc1SCC(=O)N1CCN(C(=O)c2ccco2)CC1, the z-score is reported as 0.14.
CC(C)CCNC(=O)Nc1ccc2c(c1)N(C)C(=O)CS2 was tested, and the z-score was 0.22.
With CCC1=NN(C(=O)c2cccc(Br)c2)C(O)(c2ccc(Br)cc2)C1 (centres undefined) the z-score was active: 3.84.
CN(C)C(=O)c1ccc(NC(=O)c2cc(-n3cnnc3)ccc2Cl)cc1 gave a z-score of -0.238.
Cc1ccc(OCC(=O)Nc2ccc3c(c2)OC(F)(F)O3)c([N+](=O)[O-])n1 showed a z-score of 0.0335.
In the case of O=C(COC(=O)C1(c2ccc(Cl)cc2)CCCC1)NC1CCS(=O)(=O)C1 (centres undefined), the z-score is reported as -0.164.
Compound Cc1ccc(C(=O)NNC2=Nc3cccc4cccc2c34)cc1 has a z-score of -0.056.
With CC(Oc1ccc(Cl)cc1Cl)C(=O)NC1=NN(c2ccccc2)C(=O)C1 (centres undefined) the z-score was -0.244.
Cc1cccc(OCCCC(=O)Nc2ccc(S(N)(=O)=O)cc2)c1C was tested, and the z-score was -0.329.
CCN1CCc2nc(NC(=O)CC(c3ccccc3)c3ccccc3)sc2C1 was tested, and the z-score was 0.113.
With CCC1CCCCN1C(=O)N[C@@H](CCSC)C(=O)OC (some centres undefined) the z-score was -0.0219.
With CCN(CC)CCCN1C(=O)C(O)=C(C(=O)c2ccc(C)o2)C1c1ccc(C)o1 (centres undefined) the z-score was -0.166.
For O=C(O)C1CC=C(Cl)CC1C(=O)NCC1OCCc2ccccc21 (centres undefined), the z-score was 0.0523.
For C/C(=N\NC(=S)NC1CCCCC1)c1ccccc1, the z-score was -0.178.
With O=C(N/N=C/c1c[nH]c2ccccc12)c1ccncc1 the z-score was -0.168.
O=C1/C(=C/c2cccs2)CCc2ccccc21 was tested, and the z-score was 0.483.
With O=C1C2C3C=CC(C4CC34)C2C(=O)N1/N=C/c1ccc([N+](=O)[O-])s1 (centres undefined) the z-score was 0.0104.
For COc1ccc(-c2cn[nH]c2-c2ccc(OCc3ccc([N+](=O)[O-])cc3)cc2O)cc1, the z-score was 0.133.
c1cncc(Nc2nc(-c3cccs3)cs2)c1 gave a z-score of -0.078.
O=C(CCCc1c[nH]c2ccccc12)N1CCCCCC1 gave a z-score of -1.05.
COC(=O)/C=C1\C(=O)N(c2nc3ccccc3s2)C(=S)N1c1ccc(F)cc1 showed a z-score of 0.0438.
For CC(C)(C)NC(=O)Cc1ccc(S(=O)(=O)N2CCCC2)s1, the z-score was 0.00183.
CC(NC(=O)C1CCCC1)c1ccc2c(c1)OCCO2 (centres undefined) gave a z-score of -0.343.
Compound CCc1nc(NCCN)c(C#N)c2c1CSC(C)(C)C2 has a z-score of -0.174.
COC(=O)c1c(NC(=O)CCc2ccc(C)o2)sc(C)c1C showed a z-score of -0.471.
Compound CC(=O)Nc1sc2c(c1C#N)CCCC2 has a z-score of 0.268.
Compound Cc1ccccc1-n1c(=O)c(C#N)cc2c(=O)n3ccccc3nc21 has a z-score of -0.02.
Cc1ccc(S(=O)(=O)N2CCOCC2)cc1NC(=O)COC(=O)CSc1ccc(Br)cc1C was tested, and the z-score was -0.132.
O=C(O)C1CC=CCC1C(=O)Nc1ccccc1 (centres undefined) gave a z-score of -0.0276.
CC1CCCN(C(=O)CCc2ccccc2)C1 (centres undefined) was tested, and the z-score was -0.268.
For COc1ccc(N2C(=O)C(Cl)=C(N3CCCC(C)C3)C2=O)cc1 (centres undefined), the z-score was -0.539.
In the case of CN1CCN(C(=O)CCC(=O)c2ccc(F)cc2)CC1, the z-score is reported as 0.574.
C(=N\n1cnnc1)/c1nc2ccccc2[nH]1 was tested, and the z-score was -0.217.
CCOC(=O)c1[nH]c2ccccc2c1NC(=O)NC1CCCCC1 showed a z-score of -0.294.
O=C(NCCCn1ccnc1)c1ccccc1NS(=O)(=O)c1ccc(F)c(F)c1 was tested, and the z-score was -0.249.
CCOC(=O)/C(C#N)=C\c1c(C)cc(C)c(COC(C)=O)c1C was tested, and the z-score was -0.12.
For Cc1cccc(N2CCN(C(=O)C34CC5CC(CC(C5)C3)C4)CC2)c1C, the z-score was 0.335.
CCN(CC(=O)NCc1ccccn1)S(=O)(=O)c1ccc(Cl)cc1 was tested, and the z-score was 0.0295.
CC(C)(C)NC(NC(=O)Cc1ccccc1)C(Cl)(Cl)Cl (centres undefined) showed a z-score of -0.194.
CCCCCC(=O)NC(=S)Nc1ccccc1C(=O)OC showed a z-score of 0.197.
Work on CCCC(=O)Nc1nnc(CC(=O)N2CCCC2)s1 yielded a z-score of -0.177.
CCOC(=O)C1CCCN(C(=O)c2sc3nc(-c4ccc(F)cc4)cn3c2C)C1 (centres undefined) gave a z-score of 0.112.
CCOC(=O)N1CCC(NC(=O)c2cccn3c(=O)c4cc(Br)ccc4nc23)CC1 was tested, and the z-score was -1.28.
Cc1cc(C)cc(N(C(C)C(=O)Nc2c(C)n(C)n(-c3ccccc3)c2=O)S(C)(=O)=O)c1 (centres undefined) showed a z-score of -0.399.
Work on CCCCN(C)Cc1c(C)[nH]c2c(Cl)cccc2c1=O yielded a z-score of 0.173.
COc1ccc(NS(=O)(=O)c2ccc3c(c2)Cc2ccccc2-3)cn1 gave a z-score of -0.0264.
Compound CC1CC(c2ccccc2)n2nc(NC(=O)c3cccs3)nc2N1 (centres undefined) has a z-score of -0.14.
Cc1ccc(S(=O)(=O)NCCCNC(=O)c2ccccc2)cc1 was tested, and the z-score was 0.418.
OC(CN1CCCCC1)CN1CCCCC1 showed a z-score of -0.0343.
With Oc1ccc(Br)cc1/C=N/n1cnc2ccccc21 the z-score was 2.45.
COc1cc(C)nc(SCC(N)=O)n1 gave a z-score of -0.0477.
With O=C(c1ccccc1)c1c[nH]c(C(=O)NCc2cccnc2)c1 the z-score was 0.181.
For COc1ccc(NC(=O)CCN2CCCC2)c(OC)c1, the z-score was 0.293.
Work on Cc1ccc(CNC(=O)CSc2nc3ccccc3c3nc(C)nn23)cc1 yielded a z-score of -0.228.
In the case of CCOC(=O)/C(C#N)=C1/C=CNC(=O)N1, the z-score is reported as -0.0309.
Cc1cc(C)nc(Nc2ccc(C(=O)O)cc2)n1 was tested, and the z-score was 0.0167.
In the case of O=C(NNC(=O)c1sccc1-n1cccc1)c1ccccc1, the z-score is reported as 0.869.
With CC1CCc2sc(C(=O)OCC(=O)NCc3ccc(F)cc3)cc2C1 (centres undefined) the z-score was -0.112.
Work on COC(=O)C1(C(=O)OC)NOC2C(=O)N(c3ccc(Cl)cc3Cl)C(=O)C21 (centres undefined) yielded a z-score of -0.186.
With COCCNC(=O)c1c[nH]n2c(=O)cc(C3CCN(C(=O)OC(C)(C)C)CC3)nc12 the z-score was 0.152.
Cn1cnnc1SCC(=O)N1CCC(Cc2ccccc2)CC1 gave a z-score of 0.49.
In the case of O=C(NN=C1CCCCCC1)C(=O)Nc1cccc(Br)c1, the z-score is reported as -0.165.
COCC(=O)Nc1ccc(S(=O)(=O)Nc2cc(C)nc(C)n2)cc1 gave a z-score of 0.0181.
Compound COc1ccc(N2CCN(C(=O)c3ccc(C(C)(C)C)cc3)CC2)cc1 has a z-score of -0.118.
In the case of O=C(Cc1nn[nH]n1)c1ccccc1O, the z-score is reported as -0.103.
